pIC50: −log10 of the molar value. By IC50 is meant the dose at which the fit gives 50% viability; a limit (>, <) means that the fit lies beyond the doses tested. For AUC the same curve is integrated over the 256-fold range of doses and scaled to a fraction; the more sensitive the line, the further below 1. The top dose, if marked as inferred, was calculated from the reported fits. For part of these data: An entry number marks a drug with two screens in the source, which often give different values.
Assays:
Test in all cases: Viability of human cancer cell lines after 72 h of drug (GDSC screen)
AZD6482 = compound: Cc1cc([C@@H](C)Nc2ccccc2C(=O)O)c2nc(N3CCOCC3)cc(=O)n2c1 [AZD6482]
Procedure: (§1)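 Human cancer cell lines in 384-well plates, medium with 10% serum, drug for 72 h over a 256-fold dose range (nine 2-fold or five 4-fold steps up to the top dose). Adherent lines were fixed and stained with the nucleic acid dye Syto60, suspension lines read with resazurin; signal relative to control wells, capped at 0 and 100%. One two-parameter sigmoid per drug and line, fitted in a mixed model over all curves with the slope shared within a line.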

BMN-673 = compound: Cn1ncnc1[C@H]1c2n[nH]c(=O)c3cc(F)cc(c23)N[C@@H]1c1ccc(F)cc1 [BMN-673]; conditions: top dose 10 µM; top dose inferred
Procedure: as §1

MLN4924 = compound: NS(=O)(=O)OC[C@@H]1C[C@@H](n2ccc3c(N[C@H]4CCc5ccccc54)ncnc32)C[C@@H]1O [MLN4924]; conditions: top dose 1 µM; top dose inferred
Procedure: as §1

[1] = top dose 5 µM, screen: GDSC drug entry 1066, top dose inferred
[2] = top dose 5.12 µM, screen: GDSC drug entry 156

Row | Cell Line | AUC (AZD6482; [1]) | pIC50 (AZD6482; [1]) | AUC (AZD6482; [2]) | pIC50 (AZD6482; [2]) | AUC (BMN-673) | pIC50 (BMN-673) | AUC (MLN4924) | pIC50 (MLN4924)
1 | KP-3 (pancreas, adherent) | 0.974 | < 5.30 | 0.88 | < 5.29 | 0.961 | < 5.00 | 0.976 | < 6.00
2 | KP-4 (pancreas, adherent) | 0.943 | < 5.30 | 0.958 | < 5.29 | 0.902 | < 5.00 | 0.527 | 7.13
3 | KS-1 (glioma, adherent) | 0.868 | < 5.30 | 0.847 | < 5.29 | 0.877 | < 5.00 | 0.675 | 6.66
4 | KU812 (chronic myeloid leukaemia, suspension) | 0.976 | < 5.30 | 0.763 | 5.77 | 0.864 | 5.13 | 0.881 | 6.05
5 | KY821 (leukaemia, suspension) | 0.815 | 5.64 | 0.992 | < 5.29 | 0.981 | < 5.00 | 0.88 | 6.09
6 | KYM-1 (rhabdomyosarcoma, adherent) | 0.915 | < 5.30 | 0.985 | < 5.29 | 0.638 | 5.85 | 0.966 | < 6.00
7 | KYSE-70 (oesophagus, adherent) | 0.983 | < 5.30 | 0.948 | < 5.29 | 0.915 | < 5.00 | 0.985 | < 6.00
8 | KYSE-180 (oesophagus, adherent) | 0.988 | < 5.30 | 0.965 | < 5.29 | 0.895 | < 5.00 | 0.944 | < 6.00
9 | KYSE-270 (oesophagus, adherent) | 0.977 | < 5.30 | 0.89 | 5.36 | 0.707 | 5.66 | 0.57 | 7.03
10 | KYSE-510 (oesophagus, adherent) | 0.954 | < 5.30 | 0.905 | 5.32 | 0.743 | 5.57 | 0.769 | 6.50
11 | KYSE-520 (oesophagus, adherent) | 0.938 | < 5.30 | 0.916 | < 5.29 | 0.961 | < 5.00 | 0.943 | < 6.00
12 | L-363 (myeloma, suspension) | 0.92 | < 5.30 | 0.969 | < 5.29 | 0.977 | < 5.00 | 0.787 | 6.43
13 | L-540 (Hodgkin lymphoma, suspension) | 0.99 | < 5.30 | 0.974 | < 5.29 | 0.458 | 6.31 | 0.87 | 6.12
14 | L-1236 (Hodgkin lymphoma, suspension) | 0.806 | 5.68 | 0.988 | < 5.29 | 0.985 | < 5.00 | 0.925 | < 6.00
15 | LAMA-84 (chronic myeloid leukaemia, suspension) | 0.954 | < 5.30 | 0.974 | < 5.29 | 0.985 | < 5.00 | 0.967 | < 6.00
